Laboratory results reported in PubChem BioAssay AID1963576 (National Center for Advancing Translational Sciences (NCATS), 2024).
About 60 (0.1%) of roughly 46,000 compounds were called active. Another 3% or so got no clear call; they are omitted. The call rests on the fitted dose curve; in most records, active means well fitted inhibition curve with a large enough effect; inconclusive means small, poorly fitted or top-dose-only effect; inactive means no such curve, though single readings can be large or run the other way. The list shows a part of the results.

Assay: Primary qHTS assay for Inhibitors of ovarian cancer metastasis using an organotypic tumor microenvironment (TME) model. Further: nearly all actives have a fitted effect of over 65% in size.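 On activity change, negative = inhibition: plate controls were DMSO wells for no effect and tomatine positive control wells for full effect.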
Conditions: SKOV3ip1-GFP adhesion/invasion on 3D omental model, fluorescence; series mostly up to 45.8 µM; activity change, negative = inhibition: at the top concentration
In short: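 Primary human omental fibroblast/mesothelial 3D culture pre-formed 48 h. SKOV3ip1-GFP cells added with compounds (0.36-46 umol/L), incubated 2 h RT/16 h 37 C, fixed; GFP cells quantified at 488/509 nm.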

Row | Structure (SMILES) | outcome | activity change, negative = inhibition
1 | Cc1ccc2sc(NC(=O)c3ccc4c(c3)OCCO4)nc2c1C | inactive | –
2 | CCN(CC)c1nc2ccccc2nc1C(=O)Nc1cccc(C(C)=O)c1 | inactive | –
3 | COc1ccc(NC(=O)c2c(-c3ccc(C)cc3)nnc3ccccc23)c(OC)c1 | – | inactive: -7.07%
4 | COc1ccc2c(c1)c1c(c(=O)n(CCc3ccccc3)c(=O)n1Cc1ccc(F)cc1)n2C | inactive | –
5 | CCC(=O)Nc1cccc(C(=O)OCc2cc(=O)n3nc(CC)sc3n2)c1 | inactive | –
6 | Cc1ccccc1Cn1c(CN2CCC(C(=O)NCCc3ccccc3)CC2)cc2ccccc21 | – | inactive: 0.646%
7 | CCN(CC)CCCNC(=O)c1nn(C)c2c1CS(=O)(=O)c1ccccc1-2 | – | inactive: -1.76%
8 | Cc1oc2ncn(C)c(=O)c2c1C(=O)N1CCN(c2ccccc2F)CC1 | inactive | –
9 | CCN1C(=O)c2ccccc2Sc2ccc(NC(=O)c3ccc(Cl)cc3)cc21 | – | inactive: -8.59%
10 | Cc1ccc(NC(=O)c2sc3nc4c(cc3c2N)CN(Cc2ccccc2)CC4)cc1 | inactive | –
11 | Cc1cccc(NS(=O)(=O)c2ccc3c(c2)C(C)(C)C(=O)N3C)c1 | – | inactive: -10.1%
12 | CCc1nn(Cc2ccc(Cl)cc2)c(=O)c2cc3cc(C)ccc3n12 | – | inactive: -18%
13 | CC(=O)Oc1cc2c(s1)CCN(C(C(=O)C1CC1)c1ccccc1F)C2 (stereo not drawn) | – | inactive: 15.1%
14 | CCN(CC)C(=O)Cn1cc(SCC(=O)Nc2ccccc2C)c2ccccc21 | inactive | –
15 | CS(=O)(=O)N(Cc1ccco1)CC(O)Cn1c2ccccc2c2ccccc21 (stereo not drawn) | – | inactive: -3.99%
16 | CCOC(=O)N1CCc2c(sc(NCc3cc(OC)c(OC)cc3OC)c2C(=O)Nc2ccc(OCC)cc2)C1 | – | inactive: 3.67%
17 | CCc1ccc(-n2c(=O)c3cccnc3n2CC(=O)Nc2cc(F)ccc2F)cc1 | inactive | –
18 | CCOC(=O)c1ccc(-c2ccc(/C=C(\C#N)C(=O)Nc3ccc(OCC)cc3)o2)cc1 | – | inactive: 2.16%
19 | Cc1cccc(-c2nc(SCCCOc3ccc(Cl)c(C)c3)n3[nH]c(=O)cc3n2)c1 | – | inactive: -8.28%
20 | CCOC(=O)c1cccc(NC(=O)NCc2ccc3c(c2)CCN3C(=O)c2ccccc2)c1 | inactive | –
21 | CCN1CCN(c2ncc3c(n2)CCN(Cc2ccc(OC(C)C)cc2)C3)CC1 | – | inactive: 11.2%
22 | Cc1ccc(NS(=O)(=O)c2ccc3c(c2)CCCN3C(=O)C2CCC2)c(C)c1 | – | inactive: 1.9%
23 | CCOC(=O)c1c(S(=O)(=O)NCC(=O)Nc2cc(C)ccc2C)c(C)n(C)c1C | – | inactive: 0.955%
24 | CCc1nn(Cc2cc(C)ccc2C)c(=O)c2cc3cc(C)ccc3n12 | – | inactive: 25.1%

Row | Structure (SMILES) | outcome | activity change, negative = inhibition
25 | CCc1ccccc1NC(=O)C(=O)NCC(c1cccnc1)N1CCN(c2ccccc2F)CC1 (stereo not drawn) | inactive | –
26 | CCN(CC)CCCCNc1nc2cc(Cl)c(Cl)cc2nc1-c1ccc(-c2cccs2)s1 | – | inactive: -13.2%
27 | CCCSc1nc2sc3c(c2c(=O)n1Cc1ccccc1)CC(C)(CC)OC3 (stereo not drawn) | – | inactive: 7.96%
28 | Cc1ccc(NC(=O)C2CCC(CNS(=O)(=O)c3csc(C(N)=O)c3)CC2)cc1Cl (stereo not drawn) | inactive | –
29 | COc1ccc(Cl)cc1-n1nnc(-c2nsc(NC(=O)c3ccccc3Cl)n2)c1C | – | inactive: 72.1%
30 | COc1ccc(C2(CNC(=O)C(=O)Nc3ccc(F)cc3)CCCC2)cc1OC | – | inactive: 3.96%
31 | COC(=O)c1nnn(-c2cccc(C)c2)c1C(=O)OC | – | inactive: -20.8%
32 | COc1ccc(N2CC(NC(=O)c3ccc(Br)o3)CC2=O)cc1 (stereo not drawn) | – | inactive: -0.186%
33 | Cc1ccc(-c2cn3c(n2)sc2cc(C(=O)NC(C)C45CC6CC(CC(C6)C4)C5)ccc23)cc1 (stereo not drawn) | inactive | –
34 | COc1ccc(N2CCN(C(=O)c3cc4c(s3)-c3ccccc3OC4)CC2)cc1 | – | inactive: -12.7%
35 | CCc1nn2c(=O)cc(COC(=O)c3ccco3)nc2s1 | inactive | –
36 | COc1ccc(CN2CCN(c3ncnc4sc5c(c34)CC(C)CC5)CC2)cc1F (stereo not drawn) | – | inactive: 8.67%
37 | Cc1cc(Cl)ccc1NC(=O)CN(c1ccccc1Br)S(C)(=O)=O | – | inactive: 16.7%
38 | CCOc1ccccc1CNC(=O)C1CCN(S(=O)(=O)c2ccc3c(ccn3C)c2)CC1 | – | inactive: -5.59%
39 | O=C(Cn1ncc2c([nH]c3ccccc32)c1=O)NCC1CCN(Cc2ccc(F)cc2)CC1 | – | inactive: 4.85%
40 | Cc1ccccc1C(=O)Nc1nc(-c2nnn(-c3ccc(C(C)C)cc3)c2C)ns1 | – | inactive: -18%
41 | COc1ccccc1N1CCN(CCCNC(=O)c2cnn(-c3ccccc3)c2C2CCN(C(=O)OC(C)(C)C)CC2)CC1 | inactive | –
42 | CC(C)C(=O)Nc1ccc([N+](=O)[O-])c(C(F)(F)F)c1 | – | inactive: -4.88%
43 | Cc1nc2ccn(Cc3cccs3)c(=O)c2cc1C(=O)Nc1ccccc1 | inactive | –
44 | CCn1cc(S(=O)(=O)c2cccc(Cl)c2)c(=O)c2cc(F)c(N3CCN(c4ccccc4)CC3)cc21 | – | inactive: 9.6%
45 | Cc1ccc(/C=C/c2onc(C)c2S(=O)(=O)N2CCC(C(=O)NCC(C)c3ccccc3)CC2)cc1 (stereo not drawn) | inactive | –
46 | CC1=C(C(=O)NCc2ccc(Cl)cc2)C2(CCCCC2)OC1=O | – | inactive: -8%
47 | CCc1ccc(-n2c(Cc3ccccc3)nnc2SCc2nc(-c3cccs3)no2)cc1 | inactive | –
48 | Cc1ccc(C)n1-c1nnc(N2CCCC(C(=O)NCc3cccc(Cl)c3)C2)s1 (stereo not drawn) | inactive | –
